Whole data set: some 110,000 compounds, median “z-score” near -0.1, cut for the highest 2% near 2. Some of the results follow. Activity calls are given as the source filed them.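 Rule for the calls: active = z-score in the third read window above 3 or below -3; inactive = the rest.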
Molecular target: Metabotropic glutamate receptor 8 (Rattus norvegicus) (UniProt P70579)
Assay: mGluR8 Gi/Go-coupled signaling modulation – cell-based, rat, thallium flux, HTS, primary screen (AID 488969)
Conditions: HEK293 rat mGluR8, GIRK (G protein-gated inwardly rectifying potassium channel) thallium flux, FluoZin2; at 10 µM; stronger effect = higher value; submaximal glutamate (EC20) added with thallium

UniProt P70579, sequence (P70579 whole entry, looked up): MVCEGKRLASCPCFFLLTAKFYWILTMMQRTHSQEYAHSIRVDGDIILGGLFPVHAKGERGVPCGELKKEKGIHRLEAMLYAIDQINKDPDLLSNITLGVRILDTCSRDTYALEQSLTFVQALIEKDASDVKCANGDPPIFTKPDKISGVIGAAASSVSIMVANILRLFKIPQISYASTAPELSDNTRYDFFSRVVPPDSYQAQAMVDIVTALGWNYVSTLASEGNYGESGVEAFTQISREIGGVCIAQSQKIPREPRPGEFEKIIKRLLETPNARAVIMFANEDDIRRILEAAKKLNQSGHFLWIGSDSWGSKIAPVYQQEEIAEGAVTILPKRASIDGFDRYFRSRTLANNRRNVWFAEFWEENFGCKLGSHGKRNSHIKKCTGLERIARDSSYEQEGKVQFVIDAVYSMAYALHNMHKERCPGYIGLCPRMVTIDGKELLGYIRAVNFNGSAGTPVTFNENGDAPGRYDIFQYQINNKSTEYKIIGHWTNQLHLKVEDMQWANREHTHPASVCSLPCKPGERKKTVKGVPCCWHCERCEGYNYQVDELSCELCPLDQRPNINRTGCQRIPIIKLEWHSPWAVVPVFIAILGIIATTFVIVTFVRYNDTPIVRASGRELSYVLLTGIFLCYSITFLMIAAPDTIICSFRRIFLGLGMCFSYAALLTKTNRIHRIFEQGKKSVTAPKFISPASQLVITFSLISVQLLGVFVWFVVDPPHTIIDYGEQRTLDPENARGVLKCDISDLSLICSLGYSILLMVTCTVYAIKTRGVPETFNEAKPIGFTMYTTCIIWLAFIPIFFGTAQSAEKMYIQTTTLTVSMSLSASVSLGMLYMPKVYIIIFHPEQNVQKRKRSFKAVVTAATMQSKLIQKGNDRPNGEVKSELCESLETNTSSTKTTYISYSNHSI

Structure (SMILES) | z-score
Cc1oc2c(C)c3oc(=O)c4c(c3cc2c1C)CCCC4 | 0.617
Cc1ccc(N2C(=O)CC(n3ccnc3)C2=O)cc1C (stereo not drawn) | -0.0484
CCOC(=O)CCC(=O)Nc1ccc(S(=O)(=O)N2CCC(C)CC2)cc1 | 0.245
O=C(CSCc1ccc(F)cc1)N1CCN(c2ccccc2)CC1 | -0.296
COC(=O)CNC(=O)C12CC3(C)CC(C)(CC(C)(C3)C1)C2 | -0.117
O=C(NCC1COc2ccccc2O1)C1C2C=CC3(CN(Cc4cccs4)C(=O)C13)O2 (stereo not drawn) | -0.0499
CC(=O)C(C)Oc1ncn(-c2ccccc2)n1 (stereo not drawn) | 0.463
CCOc1ccc(-n2cccc2C=O)cc1 | 0.168
CCSCCc1nnc(NC(=O)Nc2cccc(C(F)(F)F)c2)s1 | -0.118
O=C(CNC(=S)N(Cc1ccc(F)cc1)C1CCCCC1)NC1CC1 | -0.0397
CC1CCC/C(=N/Nc2ccc([N+](=O)[O-])cc2[N+](=O)[O-])C1 (stereo not drawn) | -0.152
Cc1cc(NC(=O)COC(=O)c2cc3c(s2)CCC(C)C3)no1 (stereo not drawn) | -0.108
O=C(CCC1COc2ccccc2O1)N1CCCC1 (stereo not drawn) | 0.675
CCCc1cc(=O)[nH]c(SCc2ccccc2Cl)n1 | -0.584
N=c1oc2ccc3ccccc3c2cc1-c1nc(-c2ccccc2)cs1 | active: 3.16
COc1ccccc1Nc1nc(C)cs1 | -0.135
CC(C)C(=O)Nc1ccc2c(c1)oc1ccccc12 | -0.329

Structure (SMILES) | z-score
CCn1c(SCC(=O)N2CCOCC2)nc2sc3c(c2c1=O)CCCC3 | -0.67
COCCn1c(SCC(=O)c2[nH]c(C)c(C(C)=O)c2C)nc2ccccc21 | -0.793
O=C(c1ccccc1)c1nnc(-c2ccccc2F)o1 | 0.0344
CCn1c(=S)sc2c(=O)[nH]c(C)nc21 | -0.268
c1ccc(CNCC2COc3ccccc3O2)cc1 (stereo not drawn) | 0.331
Cc1nc(C(F)(F)F)c(C(=O)NC(=O)Nc2ccccc2)s1 | 0.41
CC(NC(=O)c1ccc(F)cc1)C(c1cccs1)N1CCN(C)CC1 (stereo not drawn) | 0.156
CCOC(=O)CCCNC(=O)CCNC(=O)c1ccc(OC(C)C)cc1 | 0.206
CNc1nnc(CSc2nc3ccccc3s2)s1 | 0.0158
Cc1ccc(S(=O)(=O)[N-]c2nc3ccccc3nc2-n2cc[n+](CCC(C)C)c2)cc1 | -0.459
CCCN1CCN(CCCNC(=O)CCNC(=O)Cn2ccc3ccccc3c2=O)CC1 | -0.163
Cc1cccc(-c2csc(NC(=O)c3cnccn3)c2C(=O)OC(C)C)c1 | 0.7
O=C(NC1CCCC1)C(c1ccccc1)N(C(=O)c1ccco1)C1CCCC1 (stereo not drawn) | -0.756
CCOC(=O)N1CCN(S(=O)(=O)c2cc(OCC(N)=O)c(C)cc2Cl)CC1 | 0.145
CCOc1ccc(N=Cc2c(O)cc(C)oc2=O)cc1 | -0.173
O=C(CCCOc1ccccc1)Nc1ccc(S(=O)(=O)N2CCOCC2)cc1 | -0.379
